# Measured values reported in the supplement of paper PMC11417369.
# ± gives the standard deviation of the averaged measurements. Some of the results follow.
# System: PfAP2-G AP2 domain (GST-tagged)
# Experiment: gcPBM binding intensity (ln(normalized median fluorescence intensity)); higher = stronger DNA binding
# Procedure, shortened: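 The highest Masliner-normalised natural-log median intensity across replicate spots of either probe orientation is reported as binding intensity. GST-tagged P. falciparum DNA-binding domains expressed in E. coli were applied for 1 h to an Agilent 4 × 180k array of primer-extended double-stranded 36-bp intergenic genomic probes plus negative controls, and bound protein was detected with Alexa488 anti-GST antibody and scanned at 488 nm.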
row,Sequence,gcPBM binding intensity (ln)
1,ATATATATATATATATGTACATATTGTATTATTCAC [XGTACX_site6511],11.2 ± 0.69
2,ATTAAAAAAAAGCTCATCGAAATGTCTTATATAAAT [CACACA_negctrl_site912],9.76 ± 0.16
3,AAACAATTTAGACATACACACAAAAATAATATTATA [CACACA_site384],10.1 ± 0.12
4,CAATTAAACAATTAAACATGCAAAATGATATAATAA [TGCATGCA_site240],9.71 ± 0.12
5,AAAAAAAAATAGAAATGTACAAATTGTAATAATTCC [XGTACX_site6182],10.4 ± 0.19
6,ATATATATATATATTTGTACATAATATATATATGCA [XGTACX_site1795],10.9 ± 0.67
7,GAGCATTACACATATACACACATATATATAAACATA [CACACA_site5515],10.1 ± 0.15
8,TATAATAATATTTATTGTACGATTAGATTAATTCAT [XGTACX_site612],11 ± 0.63
9,CATATGATATTATTTTGTACTTATTACAAATATGAA [XGTACX_site7929],11.1 ± 0.64
10,TCGTCTCAATAATTATAATAAAAAAATTCCTAAGTC [CACACA_negctrl_site338],9.78 ± 0.014
11,TTATATTTCACAAATGTGCACAGATACATATATATA,10.5 ± 0.38
12,ATTTTCCTATTTAGTAGTACTTTTTTCTTTTTTTAA [XGTACX_site5260],11.4 ± 0.86
13,TTTTTGTTTCATAAATGTACAAAAACAAACATATTT [XGTACX_site5281],10.7 ± 0.65
14,TTATATGTATATATAGTGCAGAACAAAAGATTATAT [GTGCAC_site9599],10.4 ± 0.32
15,TATGAATGGTTAAGTACACACATATTAATATAGGTA [CACACA_site7606],11.4 ± 0.98
16,ATCAATAAATAAAATGTGCACATAATATATTAATAC,10.5 ± 0.34
17,AATTTTTTTTTTTTTTTTTTTTATATATGTGTGTGT [XGTACX_negctrl_site129],9.95 ± 0.54
18,TTATTATCATCAAATCAAAAAATTCTTTTACCTGTT [CACACA_negctrl_site1348],9.62 ± 0.23
19,TATATATATATATGTAGTACCTATAATATTAAATAC [XGTACX_site6118],11.2 ± 0.76

row,Sequence,gcPBM binding intensity (ln)
1,AAGAAAAGAAACAAAAAAAAAAAGAAATAAAAGGAA [TGCATGCA_negctrl_site171],9.535 ± 0.078
2,CTTATAAATAAAAGAAGTACATGTTAGTTCAAGTTA [XGTACX_site4183],11.6 ± 0.91
3,TTGAAGAAAAAAAAATGTACATAAAAAATATATATG [XGTACX_site428],11.4 ± 0.67
4,TTCTTTATTATATGCACACGTACATAAAATATATAT [CACACA_site5157],11.5 ± 1
5,AAGTGTAAAAGTTACACACACAAACTTGTCATTTTT [CACACA_site4614],9.99 ± 0.014
6,CAAATTTTTTATTAAACACACAAACATATATATATA [CACACA_site5122],10.2 ± 0.57
7,TTTCATCTCGTCATTTCTTATATAACTATTTTATAC [CACACA_negctrl_site813],10 ± 0.071
8,ATTATTGTTTATTGATTTTTGTTAAAATAGGAAATT [GTGCAC_negctrl_site181],9.81 ± 0.099
9,ATTATATTTATTAATATGTATATTTAATTATATTTA [XGTACX_negctrl_site376],9.65 ± 0.36
10,AAAGGAGGGAATTTTTCTAGGTGTGGAGTGCTACTC [XGTACX_negctrl_site63],9.98 ± 0.2
11,TATAAAAAATATATATATAATATTATATATATATAT [TGCATGCA_negctrl_site260],9.65 ± 0.4
12,ATTTTTTTTTTTTTTTGTACGAATAATATGTATGAA [XGTACX_site5318],11.1 ± 0.75
13,TTTTTTTTTTTTTGATGTACTAAAAAAAATGAGCCT [XGTACX_site8535],11.2 ± 0.95
14,AATAAACATAAATACACACACAAAAAAAAAAACATA [CACACA_site4396],10.1 ± 0.33
15,AAAAACAAAATATAATGTACACAATATATGTATATA [XGTACX_site2301],11.4 ± 0.57
16,AAATATTACTACACTACATGCAGTTTTAGGTACACT [TGCATGCA_site42],11.2 ± 0.78
17,TAATGTTTTTATATCACACACAAATATTAAATGATT [CACACA_site543],9.835 ± 0.035
18,TTATTAGGTGTATAATGTACATATAATATATATATA [XGTACX_site3398],11 ± 0.44
19,ATAGAAGCATCACACTGTACATGGATGAACAGAAAA [XGTACX_site7311],10.7 ± 0.3

row,Sequence,gcPBM binding intensity (ln)
1,TATAATATAAGGATCACACACAAACAGACATATATA [CACACA_site557],10.23 ± 0.099
2,TATAGGTAAATGGACACACACATATTTATATTTATA [CACACA_site7683],10.9 ± 0.58
3,TGTAGTCTGGAGAAGAGTACATAGTATCTGGTAACA [XGTACX_site4944],11.3 ± 0.79
4,ATAGTTCCTTTTAATACACACAAAAAAAAAAACATG [CACACA_site3415],10.4 ± 0.42
5,GATATTAAAATATGTAGTACACATATTATATCATAT [XGTACX_site4167],11.5 ± 0.94
6,TTAAAAATTATGGATACACACATATATATATATATT [CACACA_site2383],10.2 ± 0.2
7,ATTAGCTACAAACAAAGGCTACCTATAGCAAGAGGG [GTGCAC_negctrl_site33],10.1 ± 0.25
8,AATTTAATCCGTAATAAGAAAAGAAAAAAAAAAAGA [GTGCAC_negctrl_site129],9.84 ± 0.23
9,TTTATTAAATAATCTCTTTTTATTACATAATAATAA [XGTACX_negctrl_site382],9.625 ± 0.021
10,TTTACACTTTCCAATAGTACATATTAGAATAATTCT [XGTACX_site7734],10.9 ± 0.56
11,GGATTATTTATAGGAGTGCATACATATATATATATA [GTGCAC_site9454],10.2 ± 0.4
12,TAATTTATGGAATATGTGCACTTGCTGATCACTTTT [GTGCAC_site9843],10.3 ± 0.32
13,TATATATATACATACATACACACATATATATATATA [CACACA_site4109],10 ± 0.31
14,ATAATTTCTTTTACATGTACAAAATTTGCTTATATG [XGTACX_site5388],10.8 ± 0.44
15,ATATATATAATGTGAAGTACATTTTGTTTACATATT [XGTACX_site8405],11.2 ± 0.86
16,AATATCTAAATAAAGTGTACTTACCTTATTAATTAT [XGTACX_site2276],11.3 ± 0.94
17,CCAATACATAGAAACTGTACATTATGCATTATACAC [XGTACX_site3531],10.9 ± 0.46
18,TATATATATATATAATGTACGAATAGAAAAAAAAAA [XGTACX_site7231],11 ± 0.59
